Results are given in words; binding and its absence hold for the method and conditions named. For some assays here: Binding seen in cells or lysates may run through a third protein. Some results given as binding are weak or reduced against the parent protein; the word gives no strength. Sequences can lack the tags named with a protein. Blank lines part the entries; values can stand above or below the molecule they belong to.
Tests used:
[1] = molecular target: T1, CRK36 intracellular kinase domain, GAL4 fusion (Arabidopsis thaliana) (UniProt Q9XEC6); assay: two-hybrid; GAL4 system (Clontech), pGBKT7 (BD) and pGADT7 (AD) fusions in yeast AH109; growth on SD/-Ade-His-Leu-Trp, with or without X-alpha-Gal
T1 sequence: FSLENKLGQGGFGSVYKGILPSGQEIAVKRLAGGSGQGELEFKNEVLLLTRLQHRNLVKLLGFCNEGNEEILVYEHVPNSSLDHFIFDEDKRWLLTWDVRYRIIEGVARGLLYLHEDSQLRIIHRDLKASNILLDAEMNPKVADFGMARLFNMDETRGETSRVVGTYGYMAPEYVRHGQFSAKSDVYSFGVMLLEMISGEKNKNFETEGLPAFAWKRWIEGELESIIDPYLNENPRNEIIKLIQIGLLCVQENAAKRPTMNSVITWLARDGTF

Protein sequences, listed by entry. Tags and fused reporters are not part of them. Lines headed by an entry give the natural chain unless they say otherwise; changes in a name come on top. Residues count along the entry.
UniProt Q9FL28: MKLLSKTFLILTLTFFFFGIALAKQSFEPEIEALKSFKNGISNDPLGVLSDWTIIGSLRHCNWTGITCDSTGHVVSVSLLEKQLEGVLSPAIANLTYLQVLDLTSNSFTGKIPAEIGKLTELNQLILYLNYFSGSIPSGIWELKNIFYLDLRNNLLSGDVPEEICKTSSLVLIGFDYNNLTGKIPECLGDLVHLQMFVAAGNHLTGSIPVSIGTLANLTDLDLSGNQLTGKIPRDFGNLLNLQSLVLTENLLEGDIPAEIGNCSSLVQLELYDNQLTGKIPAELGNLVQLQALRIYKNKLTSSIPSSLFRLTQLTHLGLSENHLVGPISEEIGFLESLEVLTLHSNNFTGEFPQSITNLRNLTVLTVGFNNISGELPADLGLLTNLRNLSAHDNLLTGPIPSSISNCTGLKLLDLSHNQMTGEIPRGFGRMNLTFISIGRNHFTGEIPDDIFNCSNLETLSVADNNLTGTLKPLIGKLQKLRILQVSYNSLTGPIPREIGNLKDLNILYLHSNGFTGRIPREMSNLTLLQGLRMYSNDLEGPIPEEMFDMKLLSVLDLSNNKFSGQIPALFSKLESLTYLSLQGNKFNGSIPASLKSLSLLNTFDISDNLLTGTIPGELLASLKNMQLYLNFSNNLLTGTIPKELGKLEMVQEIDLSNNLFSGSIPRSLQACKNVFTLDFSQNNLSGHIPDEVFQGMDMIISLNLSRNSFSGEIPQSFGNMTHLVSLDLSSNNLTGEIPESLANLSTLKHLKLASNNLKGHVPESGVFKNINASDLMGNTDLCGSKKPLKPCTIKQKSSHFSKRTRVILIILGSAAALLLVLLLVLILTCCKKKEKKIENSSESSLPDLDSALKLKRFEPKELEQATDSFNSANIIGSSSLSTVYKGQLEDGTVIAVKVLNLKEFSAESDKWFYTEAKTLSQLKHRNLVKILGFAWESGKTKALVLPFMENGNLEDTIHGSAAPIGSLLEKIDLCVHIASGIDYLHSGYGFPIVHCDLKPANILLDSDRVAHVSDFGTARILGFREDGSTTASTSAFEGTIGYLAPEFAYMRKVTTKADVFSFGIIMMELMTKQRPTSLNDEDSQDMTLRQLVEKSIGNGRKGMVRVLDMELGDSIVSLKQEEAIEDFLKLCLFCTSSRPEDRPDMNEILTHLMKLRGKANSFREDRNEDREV
FLS2-YFP^N (Arabidopsis protoplasts): residues 24-1173 of Q9FL28

[2] = molecular target: T2, GST-fused BIK1 (Arabidopsis thaliana) (UniProt O48814); assay: pull-down; GST-fused BIK1 (10 ug) incubated with His-tagged CRK36 kinase domain (10 ug) in 20 mM Tris-HCl pH 7.4, 200 mM NaCl, 1 mM EDTA, 2 h, 4 C; glutathione sepharose 4B beads; immunoblot with anti-GST and anti-His; both purified
T2 sequence: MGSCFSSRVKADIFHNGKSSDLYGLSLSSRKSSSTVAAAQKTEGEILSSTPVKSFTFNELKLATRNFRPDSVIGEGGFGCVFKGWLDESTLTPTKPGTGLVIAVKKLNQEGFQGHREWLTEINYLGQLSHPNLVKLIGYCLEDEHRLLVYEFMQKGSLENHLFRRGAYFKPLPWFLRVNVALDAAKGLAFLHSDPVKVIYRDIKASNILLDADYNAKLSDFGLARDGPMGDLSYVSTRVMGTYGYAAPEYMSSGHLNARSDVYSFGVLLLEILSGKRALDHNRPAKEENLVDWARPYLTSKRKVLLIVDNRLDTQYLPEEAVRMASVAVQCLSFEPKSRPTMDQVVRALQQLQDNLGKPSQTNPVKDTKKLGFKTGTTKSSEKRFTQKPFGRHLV

[3] = molecular target: T3, BIK1-YFP^N (N. benthamiana) (Arabidopsis thaliana) (UniProt O48814); assay: split reporter; BiFC (split YFP) in N. benthamiana leaves co-infiltrated with Agrobacterium C58C1; confocal microscopy
T3 sequence: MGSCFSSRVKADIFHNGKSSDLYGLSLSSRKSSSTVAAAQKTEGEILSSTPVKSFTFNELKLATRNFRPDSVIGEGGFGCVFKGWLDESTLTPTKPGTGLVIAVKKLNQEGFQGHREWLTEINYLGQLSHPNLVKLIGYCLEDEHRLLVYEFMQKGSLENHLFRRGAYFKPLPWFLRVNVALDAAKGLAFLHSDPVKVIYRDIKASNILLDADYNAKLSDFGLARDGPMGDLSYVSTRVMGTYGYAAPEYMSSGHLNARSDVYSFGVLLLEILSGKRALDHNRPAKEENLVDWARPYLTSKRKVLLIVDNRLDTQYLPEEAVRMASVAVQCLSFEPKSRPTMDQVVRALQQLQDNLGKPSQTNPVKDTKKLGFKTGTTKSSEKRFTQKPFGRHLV

[4] = molecular target: T4, BIK1-Myc (Arabidopsis thaliana) (UniProt O48814); assay: co-IP; protein extracts of N. benthamiana leaves expressing CRK36-HA and BIK1-Myc; immunoprecipitation with anti-Myc, protein A sepharose; immunoblot with anti-HA and anti-Myc
T4 sequence: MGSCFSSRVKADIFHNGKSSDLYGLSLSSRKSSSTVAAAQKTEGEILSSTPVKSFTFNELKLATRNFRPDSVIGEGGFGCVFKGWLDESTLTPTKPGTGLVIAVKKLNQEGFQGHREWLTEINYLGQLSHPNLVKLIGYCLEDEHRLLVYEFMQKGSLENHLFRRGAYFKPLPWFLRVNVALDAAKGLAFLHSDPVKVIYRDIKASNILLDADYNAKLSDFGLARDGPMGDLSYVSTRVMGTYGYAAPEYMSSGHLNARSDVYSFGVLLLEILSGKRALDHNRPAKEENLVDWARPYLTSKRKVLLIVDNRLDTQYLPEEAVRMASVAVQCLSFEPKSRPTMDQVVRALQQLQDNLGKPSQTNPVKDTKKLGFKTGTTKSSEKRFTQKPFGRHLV

[5] = molecular target: T5, BIK1-YFP^N (Arabidopsis protoplasts) (Arabidopsis thaliana) (UniProt O48814); assay: split reporter; BiFC (split YFP) in Arabidopsis mesophyll protoplasts, co-expressed for 24 h, untreated or treated with 100 nM flg22 for 15 min; confocal microscopy
T5 sequence: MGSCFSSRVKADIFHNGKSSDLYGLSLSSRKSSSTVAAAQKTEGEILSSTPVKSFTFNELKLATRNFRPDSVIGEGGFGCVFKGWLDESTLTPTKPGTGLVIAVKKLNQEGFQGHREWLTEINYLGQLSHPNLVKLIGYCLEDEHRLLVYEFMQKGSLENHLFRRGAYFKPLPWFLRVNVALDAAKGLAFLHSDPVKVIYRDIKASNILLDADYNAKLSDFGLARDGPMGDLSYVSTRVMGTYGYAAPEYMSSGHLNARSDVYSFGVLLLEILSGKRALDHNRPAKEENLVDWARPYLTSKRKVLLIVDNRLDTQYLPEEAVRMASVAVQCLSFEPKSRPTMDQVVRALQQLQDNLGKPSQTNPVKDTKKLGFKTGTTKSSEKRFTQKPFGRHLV

[6] = molecular target: FLS2-YFP^N (Arabidopsis protoplasts) (Arabidopsis thaliana) (UniProt Q9FL28); assay: as above

Molecule: FLS2 cytoplasmic kinase domain, GAL4 fusion (from UniProt Q9FL28 870-1155) (domain or fragment)
binding [1]: no binding

B1: His-tagged kinase domain of CRK36 (domain or fragment, UniProt Q9XEC6 340-612)
chain: FSLENKLGQGGFGSVYKGILPSGQEIAVKRLAGGSGQGELEFKNEVLLLTRLQHRNLVKLLGFCNEGNEEILVYEHVPNSSLDHFIFDEDKRWLLTWDVRYRIIEGVARGLLYLHEDSQLRIIHRDLKASNILLDAEMNPKVADFGMARLFNMDETRGETSRVVGTYGYMAPEYVRHGQFSAKSDVYSFGVMLLEMISGEKNKNFETEGLPAFAWKRWIEGELESIIDPYLNENPRNEIIKLIQIGLLCVQENAAKRPTMNSVITWLARDGTF
binding [2]: binds

B2: CRK36-YFP^C (N. benthamiana) (receptor, UniProt Q9XEC6 27-658)
chain: TFVCGDEDFSPNTSYVENLESLLPSLASNVIRERGFYNVSLDGVYALALCRKHYEVQACRRCVDRASRTLLTQCRGKTEAYHWDSENDANVSCLVRYSNIHRFGKLKLEPIGNVPHSSLDPSSNLTRISQEFAARANRTVEVASTADESSVLKYYGVSSAEFTDTPEVNMLMQCTPDLSSSDCNHCLRENVRYNQEHNWDRVGGTVARPSCYFRWDDYRFAGAFDNLERVPAPPRSPQTRQDYRVKKGRMFQPWSVVVVVFPTGINLAVFVAFVLAYRRMRRRIYTEINKNSDSDGQATLRFDLGMILIATNEFSLENKLGQGGFGSVYKGILPSGQEIAVKRLAGGSGQGELEFKNEVLLLTRLQHRNLVKLLGFCNEGNEEILVYEHVPNSSLDHFIFDEDKRWLLTWDVRYRIIEGVARGLLYLHEDSQLRIIHRDLKASNILLDAEMNPKVADFGMARLFNMDETRGETSRVVGTYGYMAPEYVRHGQFSAKSDVYSFGVMLLEMISGEKNKNFETEGLPAFAWKRWIEGELESIIDPYLNENPRNEIIKLIQIGLLCVQENAAKRPTMNSVITWLARDGTFTIPKPTEAAFVTLPLSVKPENRSMSERKDKDPFSVDEVSITVLYPR
binding [3]: binds

B3: CRK36-HA (receptor, UniProt Q9XEC6 27-658)
chain: TFVCGDEDFSPNTSYVENLESLLPSLASNVIRERGFYNVSLDGVYALALCRKHYEVQACRRCVDRASRTLLTQCRGKTEAYHWDSENDANVSCLVRYSNIHRFGKLKLEPIGNVPHSSLDPSSNLTRISQEFAARANRTVEVASTADESSVLKYYGVSSAEFTDTPEVNMLMQCTPDLSSSDCNHCLRENVRYNQEHNWDRVGGTVARPSCYFRWDDYRFAGAFDNLERVPAPPRSPQTRQDYRVKKGRMFQPWSVVVVVFPTGINLAVFVAFVLAYRRMRRRIYTEINKNSDSDGQATLRFDLGMILIATNEFSLENKLGQGGFGSVYKGILPSGQEIAVKRLAGGSGQGELEFKNEVLLLTRLQHRNLVKLLGFCNEGNEEILVYEHVPNSSLDHFIFDEDKRWLLTWDVRYRIIEGVARGLLYLHEDSQLRIIHRDLKASNILLDAEMNPKVADFGMARLFNMDETRGETSRVVGTYGYMAPEYVRHGQFSAKSDVYSFGVMLLEMISGEKNKNFETEGLPAFAWKRWIEGELESIIDPYLNENPRNEIIKLIQIGLLCVQENAAKRPTMNSVITWLARDGTFTIPKPTEAAFVTLPLSVKPENRSMSERKDKDPFSVDEVSITVLYPR
binding [4]: binds

Continued, values first:

binding [5]: binds
binding [6]: binds
B4: CRK36-YFP^C (Arabidopsis protoplasts) (receptor, UniProt Q9XEC6 27-658)
chain: TFVCGDEDFSPNTSYVENLESLLPSLASNVIRERGFYNVSLDGVYALALCRKHYEVQACRRCVDRASRTLLTQCRGKTEAYHWDSENDANVSCLVRYSNIHRFGKLKLEPIGNVPHSSLDPSSNLTRISQEFAARANRTVEVASTADESSVLKYYGVSSAEFTDTPEVNMLMQCTPDLSSSDCNHCLRENVRYNQEHNWDRVGGTVARPSCYFRWDDYRFAGAFDNLERVPAPPRSPQTRQDYRVKKGRMFQPWSVVVVVFPTGINLAVFVAFVLAYRRMRRRIYTEINKNSDSDGQATLRFDLGMILIATNEFSLENKLGQGGFGSVYKGILPSGQEIAVKRLAGGSGQGELEFKNEVLLLTRLQHRNLVKLLGFCNEGNEEILVYEHVPNSSLDHFIFDEDKRWLLTWDVRYRIIEGVARGLLYLHEDSQLRIIHRDLKASNILLDAEMNPKVADFGMARLFNMDETRGETSRVVGTYGYMAPEYVRHGQFSAKSDVYSFGVMLLEMISGEKNKNFETEGLPAFAWKRWIEGELESIIDPYLNENPRNEIIKLIQIGLLCVQENAAKRPTMNSVITWLARDGTFTIPKPTEAAFVTLPLSVKPENRSMSERKDKDPFSVDEVSITVLYPR

binding [1]: no binding
B5: CERK1 cytoplasmic kinase domain, GAL4 fusion (domain or fragment, UniProt A8R7E6 322-594)
chain: FNLSFKIGQGGFGAVYYAELRGEKAAIKKMDMEASKQFLAELKVLTRVHHVNLVRLIGYCVEGSLFLVYEYVENGNLGQHLHGSGREPLPWTKRVQIALDSARGLEYIHEHTVPVYVHRDIKSANILIDQKFRAKVADFGLTKLTEVGGSATRGAMGTFGYMAPETVYGEVSAKVDVYAFGVVLYELISAKGAVVKMTEAVGEFRGLVGVFEESFKETDKEEALRKIIDPRLGDSYPFDSVYKMAELGKACTQENAQLRPSMRYIVVALSTLF

binding [1]: no binding
B6: BAK1 cytoplasmic kinase domain, GAL4 fusion (domain or fragment, UniProt Q94F62 289-576)
chain: FSNKNILGRGGFGKVYKGRLADGTLVAVKRLKEERTQGGELQFQTEVEMISMAVHRNLLRLRGFCMTPTERLLVYPYMANGSVASCLRERPESQPPLDWPKRQRIALGSARGLAYLHDHCDPKIIHRDVKAANILLDEEFEAVVGDFGLAKLMDYKDTHVTTAVRGTIGHIAPEYLSTGKSSEKTDVFGYGVMLLELITGQRAFDLARLANDDDVMLLDWVKGLLKEKKLEALVDVDLQGNYKDEEVEQLIQVALLCTQSSPMERPKMSEVVRMLEGDGLAERWEEWQ

— publication PMC5663720
